{
  "source": "PubChem BioAssay AID1461",
  "about": "(National Center for Advancing Translational Sciences (NCATS), 2008)",
  "note": "Screen size: about 220,000 compounds; about 2,300 (1%) were called active. This list was built around the results that the source calls inconclusive (neither active nor inactive); the mix of calls is not that of the screen. Calls follow the shape of the dose curve; as a rule, active = well fitted inhibition curve with a large enough effect; inconclusive = small, poorly fitted or top-dose-only effect, or effect the other way; inactive = no such curve, though single readings can be large or run the other way. Potencies beside an inconclusive call are fits to weak or partial responses and may not hold up. % is scaled to controls: 0 for no effect and ±100 for the full control effect; potency is read from the fitted curve at half-maximal effect; tags tell the direction and shape of the fitted curve.",
  "data": [
    {"molecular_target": "Neuropeptide S receptor (Homo sapiens) (UniProt Q6W5P4)", "sequence (Q6W5P4 whole entry, looked up)": "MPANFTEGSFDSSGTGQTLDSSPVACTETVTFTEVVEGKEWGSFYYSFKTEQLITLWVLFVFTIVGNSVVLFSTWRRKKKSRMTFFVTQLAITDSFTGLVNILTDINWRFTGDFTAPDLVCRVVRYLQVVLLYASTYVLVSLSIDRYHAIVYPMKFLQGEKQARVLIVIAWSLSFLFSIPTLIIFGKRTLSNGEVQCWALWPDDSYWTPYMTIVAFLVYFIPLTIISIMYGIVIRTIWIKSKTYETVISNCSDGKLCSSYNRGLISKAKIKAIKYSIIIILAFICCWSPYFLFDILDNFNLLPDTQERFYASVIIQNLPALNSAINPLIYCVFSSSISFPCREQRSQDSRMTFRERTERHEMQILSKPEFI", "assay": "qHTS Assay for Antagonists of the Neuropeptide S Receptor: cAMP Signal Transduction; also: nearly all actives have a fitted effect of over 50% in size", "details": "CHO-NPSR cells, cAMP TR-FRET, antagonist mode; activity change, negative = inhibition: at 38.3 µM (top of the series) unless noted", "values": [
      {"smiles": "Cn1c(=NC(=O)c2ccc3c(c2)OCCO3)sc2cc(S(C)(=O)=O)ccc21", "Potency": "inconclusive: 10 µM [inhibitor, single point]"},
      {"smiles": "Cc1cc(C)nc(NCC(O)COc2ccccc2C)n1", "note": "(stereo not drawn)", "Potency": "inconclusive: 10 µM [inhibitor, partial curve, poor fit]"},
      {"smiles": "CCN(CC)C1=CC2=CC(=C(C#N)C#N)CCC2CC1", "note": "(stereo not drawn)", "activity change, negative = inhibition": "inactive: -23.3%"},
      {"smiles": "COc1ccc(-c2[nH]c(-c3cc(OC)c4c(c3)OCO4)nc2-c2ccccc2)cc1", "activity change, negative = inhibition": "inactive: -57.9%"},
      {"smiles": "Cc1ccc(C(=O)Nc2c(C#N)c(C)c(C)n2Cc2ccccc2)cc1", "Potency": "inconclusive: 10 µM [inhibitor, partial curve, poor fit]"},
      {"smiles": "O=C(Nc1ccc(N2CCN(C(=O)c3ccco3)CC2)c(Cl)c1)c1cc2ccccc2o1", "Potency": "inconclusive: 20 µM [inhibitor, single point]"},
      {"smiles": "COc1cc(NC2CCCCC2O)c2nc(-c3ccc(Cl)cc3)ccc2c1", "note": "(stereo not drawn)", "Potency": "inconclusive: 15.8 µM [activator, single point]"},
      {"smiles": "CC(C)OCCCN1CN(S(=O)(=O)c2cccc(Cl)c2)c2nc3ccccc3nc21", "Potency": "inconclusive: 10 µM [inhibitor, partial curve]"},
      {"smiles": "N#Cc1c(-c2ccccc2)cc(C2CC2)nc1SCC(=O)c1cccs1", "Potency": "inconclusive: 10 µM [inhibitor, partial curve]"},
      {"smiles": "O=c1c2cc(N3CCOCC3)ccc2[nH]c(=S)n1CCN1CCCC1", "Potency": "inconclusive: 1.58 µM [activator, partial curve]"},
      {"smiles": "COc1ccc2c(C)cc(N3CCN(c4ccc(F)cc4)CC3)nc2c1", "Potency": "inconclusive: 12.6 µM [inhibitor, single point]"},
      {"smiles": "COc1ccc(Cn2ccnc2CO)cc1[N+](=O)[O-]", "activity change, negative = inhibition": "inactive: 1.84%"},
      {"smiles": "CCc1ccccc1NC(=O)Nc1ccc(F)cc1", "activity change, negative = inhibition": "inactive: 11.9%"},
      {"smiles": "Cc1ccc(-c2nnc(SCc3ccccc3F)o2)cc1", "activity change, negative = inhibition": "inactive: -21.9% [at 46.1 µM]"},
      {"smiles": "COc1ccc(CC(=O)Nc2cccc(-c3nnc(-c4cccc(C)c4)o3)c2)cc1OC", "Potency": "inconclusive: 12.6 µM [inhibitor, single point]"},
      {"smiles": "CCOc1cc(C)nc(N2CCCC(C(=O)NCc3ccccc3F)C2)n1", "note": "(stereo not drawn)", "Potency": "inconclusive: 3.16 µM [inhibitor, single point]"},
      {"smiles": "CCc1cc2c(=O)c(-c3nc4ccccc4n3C)c(C)oc2c(CN2CCN(C)CC2)c1O", "activity change, negative = inhibition": "inactive: -12.1% [at 46.1 µM]"},
      {"smiles": "COc1ccc(Nc2nc(N3CCCC3)nc(N3CCCC3)n2)c(OC)c1", "Potency": "inconclusive: 10 µM [inhibitor, single point]"},
      {"smiles": "O=C(COc1cccc(NC(=O)c2ccco2)c1)c1ccccc1", "Potency": "inconclusive: 0.794 µM [inhibitor, full curve, poor fit]"},
      {"smiles": "Cc1c(-c2ccc(Br)cc2)nc2ccccn12", "activity change, negative = inhibition": "inactive: -29.1% [at 46.1 µM]"},
      {"smiles": "CCOC(=O)C1CN(S(=O)(=O)c2ccc(C)cc2)c2cc(S(=O)(=O)CC)ccc2O1", "note": "(stereo not drawn)", "activity change, negative = inhibition": "inactive: -18.5% [at 46.1 µM]"},
      {"smiles": "C=CCn1c(=O)c2ccccc2n2c(SCc3cc(=O)n4ccsc4n3)nnc12", "Potency": "inconclusive: 3.16 µM [inhibitor, full curve, poor fit]"},
      {"smiles": "Cc1ccc(S(=O)(=O)Nc2ccc(C(OC(=O)c3ccccc3[N+](=O)[O-])(C(F)(F)F)C(F)(F)F)cc2)cc1", "Potency": "inconclusive: 10 µM [inhibitor, single point]"},
      {"smiles": "CC(C)(C)c1ccc(C(=O)Nc2ccc(C=C(C#N)C#N)cc2)cc1", "activity change, negative = inhibition": "inactive: -46.1%"},
      {"smiles": "O=C(COc1nsnc1N1CCOCC1)N1CCOCC1", "Potency": "inconclusive: 20 µM [inhibitor, partial curve, poor fit]"},
      {"smiles": "NS(=O)(=O)c1ccc(NC(=O)N2c3ccccc3Sc3ccccc32)cc1", "Potency": "inconclusive: 12.6 µM [inhibitor, single point]"},
      {"smiles": "CCCCN=c1scc(-c2ccc3c(c2)NC(=O)CO3)n1N=C1CCCC1", "Potency": "inconclusive: 12.6 µM [inhibitor, single point]"},
      {"smiles": "Cc1cc(C(=O)CSc2nnnn2C)c(C)n1CCc1ccc(F)cc1", "Potency": "inconclusive: 3.98 µM [inhibitor, partial curve, poor fit]"},
      {"smiles": "O=C(CCC(=O)c1cccs1)c1cccs1", "activity change, negative = inhibition": "inactive: 2.35% [at 46.1 µM]"},
      {"smiles": "S=C(CN1CCCC1=S)NCCc1ccccc1", "activity change, negative = inhibition": "inactive: 2.71%"},
      {"smiles": "Cc1cc(NS(=O)(=O)N(C)C)ccc1C(C)C", "activity change, negative = inhibition": "inactive: -10% [at 46.1 µM]"},
      {"smiles": "CCSc1ncc(/C=N/Nc2ccc(F)cc2)n1C", "activity change, negative = inhibition": "inactive: -20.9% [at 46.1 µM]"},
      {"smiles": "O=C1CCN(CCc2ccccc2)CCN1[C@H](CSc1ccc(Br)cc1)Cc1ccccc1", "Potency": "inconclusive: 12.6 µM [inhibitor, single point]"},
      {"smiles": "O=C(C1=C[C@@H](C2CCCCC2)C[C@@H](OCc2ccc(CO)cc2)O1)N1CCN(Cc2ccc3c(c2)OCO3)CC1", "Potency": "inconclusive: 7.94 µM [activator, partial curve]"},
      {"smiles": "CCc1ccc2c(c1)C1(NN=C(c3cccc4ccccc34)S1)C(=O)N2", "note": "(stereo not drawn)", "activity change, negative = inhibition": "inactive: 5.62% [at 46.1 µM]"},
      {"smiles": "CC(=O)c1c(C)oc2ccc(N(C(C)=O)S(=O)(=O)c3ccc(Cl)c([N+](=O)[O-])c3)cc12", "Potency": "inconclusive: 10 µM [inhibitor, single point]"},
      {"smiles": "Cc1onc(-c2c(Cl)cccc2Cl)c1COC(=O)c1ccc([N+](=O)[O-])cc1", "Potency": "inconclusive: 25.1 µM [activator, single point]"},
      {"smiles": "CCOC(=O)c1cnc2ccccc2c1NCCc1ccc(OC)c(OC)c1", "Potency": "inconclusive: 12.6 µM [inhibitor, single point]"},
      {"smiles": "O=C1COc2ccc(N3C(=O)C=CC3=O)cc2N1", "Potency": "inconclusive: 25.1 µM [inhibitor, single point]"},
      {"smiles": "Cc1ccc(S(=O)(=O)c2c(N)n(CCN3CCOCC3)c3nc4ccccc4nc23)cc1C", "Potency": "inconclusive: 5.01 µM [inhibitor, single point]"},
      {"smiles": "Oc1ccc2ccccc2c1C1Nc2cccc3cccc(c23)N1", "Potency": "inconclusive: 12.6 µM [inhibitor, single point]"},
      {"smiles": "Cc1ccc(S(=O)(=O)CCN2CCN(c3ccccn3)CC2)cc1", "activity change, negative = inhibition": "inactive: -24.6%"},
      {"smiles": "Nc1c(C(=O)Nc2ccccc2)sc2nc3c(c(-c4ccco4)c12)CCCC3", "Potency": "inconclusive: 12.6 µM [inhibitor, partial curve]"},
      {"smiles": "CCc1cc(C(=O)NNC(=S)Nc2cccc(C)c2)cs1", "activity change, negative = inhibition": "inactive: 5.16%"},
      {"smiles": "O=C1CC(c2ccco2)CC(O)=C1C=Nc1cc(Cl)ccc1Cl", "note": "(stereo not drawn)", "activity change, negative = inhibition": "inactive: -7.64%"},
      {"smiles": "COc1ccc(Nc2nnc(-c3ccc(N4CCOCC4)c([N+](=O)[O-])c3)c3ccccc23)cc1", "Potency": "inconclusive: 12.6 µM [inhibitor, partial curve]"},
      {"smiles": "COc1ccc(C2CC(c3ccccc3)Nc3nc(NC(=O)c4cccs4)nn32)cc1", "note": "(stereo not drawn)", "Potency": "inconclusive: 12.6 µM [inhibitor, partial curve]"},
      {"smiles": "O=C(CN1CC(=O)Nc2ccccc21)Nc1ccc(F)c(F)c1", "activity change, negative = inhibition": "inactive: -7.82%"},
      {"smiles": "CC(C)(C)c1cnnn1-c1ccc(/C=N/Nc2ccc([N+](=O)[O-])cc2)cc1", "Potency": "inconclusive: 10 µM [inhibitor, single point]"},
      {"smiles": "O=S(=O)(/N=C(/Sc1ccccc1)c1ccccc1)c1ccccc1", "Potency": "inconclusive: 10 µM [inhibitor, single point]"},
      {"smiles": "O=C(COc1ccc2ccccc2c1)Nc1ccncc1", "activity change, negative = inhibition": "inactive: -18.2%"},
      {"smiles": "COc1cccc(/C=N/n2c(C)nc3ccccc32)c1OC", "Potency": "inconclusive: 7.94 µM [inhibitor, partial curve, poor fit]"},
      {"smiles": "Nc1ccc(-c2nc3c(Cl)c(N)ccc3[nH]2)cc1", "Potency": "inconclusive: 10 µM [inhibitor, partial curve]"},
      {"smiles": "CC(C)(C)OC(=O)N1CCC(c2c(C(=O)O)cnn2-c2ccc(Cl)cc2)CC1", "Potency": "inconclusive: 5.01 µM [inhibitor, full curve]"},
      {"smiles": "CCCOc1ccccc1C1CC(=O)NC(C)=C1C(=O)OCC(C)C", "note": "(stereo not drawn)", "Potency": "inconclusive: 12.6 µM [inhibitor, single point]"},
      {"smiles": "COCCCn1c(Cc2csc(Nc3cccc(Cl)c3)n2)nnc1SCC(=O)OC", "activity change, negative = inhibition": "inactive: -14.4% [at 46.1 µM]"},
      {"smiles": "O=S(=O)(c1ccc2nc(-c3ccco3)c(-c3ccco3)nc2c1)N1CCOCC1", "Potency": "inconclusive: 3.98 µM [inhibitor, partial curve]"},
      {"smiles": "CC(=O)Nc1ccc(SCC(=O)c2cc(C)n(Cc3cccs3)c2C)cc1", "activity change, negative = inhibition": "inconclusive: -31.2% [inhibitor] [at 46.1 µM]"},
      {"smiles": "Cc1nc(N)nc(N)c1/C=C/C(C)(C)c1ccc(Cl)cc1", "Potency": "inconclusive: 25.1 µM [inhibitor, single point]"},
      {"smiles": "COc1ccc(C(=O)NCC(=O)N=Nc2c(O)n(C)c3ccccc23)cc1OC", "Potency": "inconclusive: 12.6 µM [inhibitor, single point]"},
      {"smiles": "C#CCN1C(C)=C(C(=O)OC)C(c2cccc([N+](=O)[O-])c2)C(C(=O)OCC)=C1C", "note": "(stereo not drawn)", "Potency": "inconclusive: 15.8 µM [inhibitor, partial curve]"},
      {"smiles": "CN(C)c1ccc(C(=O)OCC(=O)N2CCOCC2)cc1", "activity change, negative = inhibition": "inactive: 10.8%"},
      {"smiles": "CCOC(=O)N1C/C(=C\\c2ccccc2)C(=O)/C(=C/c2ccccc2)C1", "Potency": "inconclusive: 15.8 µM [activator, single point]"},
      {"smiles": "COc1ccc(OCCn2cc(/C=C(\\C#N)C(=O)NCc3ccco3)c3ccccc32)cc1", "activity change, negative = inhibition": "inactive: 4.12%"},
      {"smiles": "O=C(COC(=O)c1ccc(S(=O)(=O)N2CCOCC2)cc1)Nc1nc(-c2ccccc2)cs1", "Potency": "inconclusive: 2.51 µM [inhibitor, partial curve]"},
      {"smiles": "Cc1nn(Cc2c(Cl)cccc2Cl)c(C)c1NC(=O)c1cn(-c2ccccc2)nc1-c1ccccc1", "Potency": "inconclusive: 2.51 µM [inhibitor, full curve, poor fit]"},
      {"smiles": "Cc1ccc(SCc2cc(=O)[nH]c(/N=C(\\N)Nc3ccc(C)c(C)c3)n2)cc1", "Potency": "inconclusive: 3.98 µM [inhibitor, single point]"},
      {"smiles": "CCOCCn1c(CN(Cc2ccccc2)Cc2ccccc2)nc2c1c(=O)n(C)c(=O)n2C", "Potency": "inconclusive: 20 µM [inhibitor, partial curve, poor fit]"}
    ]}
  ]
}
